In PubChem BioAssay AID485344 (National Center for Advancing Translational Sciences (NCATS), 2010):
Screen size: about 340,000 compounds; about 6,900 (2%) were called active. Cut-off read from the data, not from the text of the source: active = inhibition above about 30%; inactive = below that, where a call was filed. Only a part is listed here, and it is no random draw. The source gives no active or inactive call for entries shown without one.

Biological target: D(2) dopamine receptor (Homo sapiens) (UniProt P14416)
Assay: HTS Assay for Allosteric Antagonists of the Human D2 Dopamine Receptor: Primary Screen for Antagonists; note: 0% is about no effect
Details: HEK293 TREx D2 cells, calcium flux, dopamine EC80; at 10 µM; stronger effect = higher value
In short: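 Antagonism is scored as inhibition of an EC80 dopamine-evoked calcium signal in a force-coupled, tetracycline-inducible HEK293 T-REx D2 line, with compound present 180 s before agonist.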

Chain of UniProt P14416 (P14416 whole entry, looked up): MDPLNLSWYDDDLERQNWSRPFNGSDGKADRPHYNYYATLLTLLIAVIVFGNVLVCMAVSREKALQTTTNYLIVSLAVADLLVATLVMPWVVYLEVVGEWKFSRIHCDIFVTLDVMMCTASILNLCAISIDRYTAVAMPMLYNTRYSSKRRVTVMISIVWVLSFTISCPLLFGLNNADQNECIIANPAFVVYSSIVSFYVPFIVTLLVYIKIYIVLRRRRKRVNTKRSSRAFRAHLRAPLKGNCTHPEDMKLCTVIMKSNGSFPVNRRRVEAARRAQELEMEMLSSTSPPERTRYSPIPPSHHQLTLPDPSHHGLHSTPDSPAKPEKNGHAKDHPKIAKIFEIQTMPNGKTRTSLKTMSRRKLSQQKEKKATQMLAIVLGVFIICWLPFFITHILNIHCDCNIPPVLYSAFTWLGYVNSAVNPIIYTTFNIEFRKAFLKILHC

First: CCOc1ccc(S(=O)(=O)c2c[nH]c3ccccc3c2=O)cc1
Second: COc1ccc(CNC(=O)CN2C(=O)CCCc3ccccc32)cc1
The inhibition of the first is higher: 0.898% for the first, -4.17% for the second.

Going from `Cc1ccccc1C(=O)Nc1ccc2nc(Nc3cccc(C(F)(F)F)c3)cc(C)c2c1` to `Cc1ccc(-c2nnc3ccccc3c2C(=O)Nc2cccc(Cl)c2)cc1`, the inhibition rises from -12.2% to 14%.

Going from `CCCc1cc(=O)oc2cc(C)c3c(-c4cccc(OC)c4)coc3c12` to `COc1ccccc1CCNC(=O)Cc1c(C)c2c(cc(C)c3c(C)c(C)oc32)oc1=O`, the inhibition falls from 2.26% to -0.779%.

Compared with `CC(C)(C)C1CCc2c(sc(NC(=O)CCC(=O)O)c2C(=O)Nc2ccccc2C(F)(F)F)C1` (stereo unspecified), `CCOC(=O)c1c(NC(=O)COc2cccc(C(F)(F)F)c2)sc2c1CCCCC2` is lower in inhibition: 7.34% for the first, 0.37% for the second.

Compared with `NS(=O)(=O)c1ccc(CCNC(=O)c2ccc3nc(Cc4ccccc4)oc3c2)cc1`, `COc1ccc(C(=O)Nc2c(C(=O)c3ccccc3)oc3ccccc23)cc1` is lower in inhibition: 9.05% for the first, 4.95% for the second.

Compared with `CC1CCCN(Cc2nc3c(c(=O)n(C)c(=O)n3C)n2Cc2ccc(Cl)cc2Cl)C1` (stereo unspecified), `Cn1c(=O)c(=O)n(C)c2cc(N3CCOCC3)c(NS(=O)(=O)c3ccc(F)c(Cl)c3)cc21` is higher in inhibition: -15.1% for the first, -11.2% for the second.

Going from `CCOC(=O)c1cccc(NC(=O)N2CC(CC)Sc3ccccc32)c1` (stereo unspecified) to `CCOC(=O)c1cccc(NC(=O)N2CCC(CN3CCc4ccccc4C3)CC2)c1`, the inhibition falls from 6.93% to -21.2%.

Going from `Cc1ccccc1OCC(=O)Nc1ccc(OCc2cc(=O)n3ccsc3n2)cc1` to `CCOC(=O)c1ccc(NC(=O)CSc2nccn2-c2ccc(OCC)cc2)cc1`, the inhibition falls from 10.6% to -9.65%.

Going from `O=C(Cc1ccc(F)cc1)NCc1nc2cccnc2n1Cc1ccc(F)cc1` to `Cc1ccc(Cn2c(CNS(=O)(=O)c3ccc(Cl)s3)nc3cccnc32)cc1`, the inhibition rises from 4.33% to 8.35%.

Compared with `FC(F)(F)c1cccc(N2CCN(Cc3nnc(-c4ccc5c(c4)OCO5)o3)CC2)c1`, `Cc1cccc(-c2nc(CSCC(=O)N3CCN(c4ccccc4)CC3)c(C)o2)c1` is lower in inhibition: -3.43% for the first, -9.6% for the second.

First: COc1cc([N+](=O)[O-])ccc1NC(=O)N1CCN(c2cc(-c3noc(C)n3)ccc2C)CC1
Second: COc1ccccc1N1CCN(c2ccc(-c3nc(-c4ccccc4C)no3)cc2[N+](=O)[O-])CC1
The inhibition of the first is higher: -12% for the first, -18.1% for the second.

Compared with `COc1ccc(NC(=O)C(C)n2nnc3sc(-c4ccccc4)cc3c2=O)cc1Cl` (stereo unspecified), `COc1ccc(NC(=O)CC(C)n2nc(C)cc2C)cc1Cl` (stereo unspecified) is lower in inhibition: -5.19% for the first, -10.2% for the second.

First: CCOc1ccc(CCNC(=O)c2cc(=O)[nH]c3ccc(S(=O)(=O)N4CCCCC4)cc23)cc1OCC
Second: CCOc1ccc(CCNC(=O)Cn2ncn3c(cc4ccccc43)c2=O)cc1OCC
The inhibition of the first is higher: 2.95% for the first, -5.41% for the second.

First: COc1cccc(NC(=O)C(=O)NCCc2csc(-c3ccc(C(F)(F)F)cc3)n2)c1
Second: Cc1nc(-c2ccccc2)sc1CCNC(=O)C(=O)Nc1ccc2c(c1)OCCO2
The inhibition of the first is higher: 15.1% for the first, 14.1% for the second.

Going from `CCOc1ccccc1CNC(=O)C1CCN(S(=O)(=O)c2c(C)noc2/C=C/c2ccc(C)cc2)CC1` to `CCOC(=O)c1cccc(NC(=O)C2CCCN(c3nnc(C)c4c(C)n(-c5ccccc5)nc34)C2)c1` (stereo unspecified), the inhibition falls from -3.39% to -7.06%.

Going from `COc1ccccc1Cc1nc2ccccc2nc1SCC(=O)N1CCc2ccccc21` to `O=C(Nc1nnc(S(=O)(=O)N2CCc3ccccc32)s1)c1ccccc1`, the inhibition rises from 10.5% to 18.8%.

First: Cc1cccc(N2CCN(C(=O)Cn3cnc4sc(C)c(S(=O)(=O)N5CCN(c6ncccn6)CC5)c4c3=O)CC2C)c1 (stereo unspecified)
Second: Cc1cc2[nH]c(=O)c(=O)[nH]c2cc1S(=O)(=O)N1CCN(c2cccc(C)c2C)CC1
The inhibition of the first is lower: -1.19% for the first, 15% for the second.

Going from `FC(F)(F)c1cccc(-c2nnn3c2nc(NC2CCCCC2)c2ccccc23)c1` to `Cc1ccc(-c2nn(CC(=O)NC3CCCCC3)c3c2cnc2ccccc23)cc1`, the inhibition falls from 9.43% to 2.29%.

First: CCC(C)NC(=O)C1CCN(C(=O)c2ccc(-n3ccc4ccccc43)s2)CC1 (stereo unspecified)
Second: CC(C)(C)OC(=O)N1CCC(c2c(C(=O)NCc3ccc4c(c3)OCO4)cnn2-c2ccccc2Cl)CC1
The inhibition of the first is lower: 1.68% for the first, 1.72% for the second.

Going from `COc1cc(OC)c(NC(=O)N2CCc3c(sc4c3CCCC4)C2c2ccccc2)cc1Cl` (stereo unspecified) to `COc1ccc(NC(=O)c2ccc3c(c2)nnn3C2CCCC2)cc1Cl`, the inhibition falls from -0.363% to -6.43%.

Going from `O=C(Nc1nnc(S(=O)(=O)N2CCCCCC2)s1)c1ccccc1Cl` to `COc1ccc(C(=O)Nc2nnc(S(=O)(=O)N(CC(C)C)c3ccccc3)s2)cc1`, the inhibition rises from -0.0106% to 9.7%.

Going from `Cc1cccc(NC(=O)C(Cc2ccccc2)n2cccc2)c1C` (stereo unspecified) to `Cc1ccc(Sc2c(C(=O)NCc3ccccc3C)[nH]c3ccccc23)cc1`, the inhibition rises from 9.64% to 16%.

Going from `CCn1ccc2cc(S(=O)(=O)N3CCCN(C(=O)Nc4ccc(C)c(F)c4)CC3)ccc21` to `O=C(Nc1cc(Cl)cc(Cl)c1)c1cc(S(=O)(=O)N2CCc3ccccc3C2)ccc1F`, the inhibition rises from -5.5% to 8.92%.

First: Cc1cccc(N(C)c2nc3ccc(C)cc3n3cnnc23)c1
Second: COc1ccc(NC(=O)c2cc3cc(C)ccc3n2C)cc1
The inhibition of the first is higher: 10.7% for the first, 0.963% for the second.

Going from `CCCCOc1ccccc1C(=O)Nc1nonc1-c1ccccc1` to `CCc1ccccc1Nc1cc(C(=O)NC2CCC(C)CC2)c2ccccc2n1` (stereo unspecified), the inhibition falls from 23.1% to 1.94%.

First: CCCc1ccc(OCC(=O)Nc2sc3c(c2C(=O)OC)CCCCC3)cc1
Second: CCCOc1ccc(CN(C(=O)c2nc(SC(C)C)ncc2Cl)C2CCS(=O)(=O)C2)cc1 (stereo unspecified)
The inhibition of the first is lower: -6.06% for the first, 14% for the second.

First: CC(C)CC(=O)NCC1(N(C)C)CCCCC1
Second: CC(C)COc1ccc(C(=O)N2CCN(CCc3ccccn3)CC2)cc1
The inhibition of the first is lower: -8.73% for the first, 8.11% for the second.

Compared with `COc1ccc(CNC(=O)C(C)N2Cc3ccccc3C2=O)cc1` (stereo unspecified), `COc1ccc(CNC(=O)c2cc(-c3ccc(C)c(C)c3)n[nH]2)cc1` is higher in inhibition: -18.5% for the first, 9.31% for the second.

Compared with `Cc1ccc2c(=O)c(C(=O)c3ccc(F)cc3)cn(CC(=O)NCc3ccccc3Cl)c2n1`, `COc1ccc(OC)c(C2C(C(=O)Nc3ccccc3OC)=C(C)Nc3c(C(=O)Nc4ccc(F)cc4)cnn32)c1` (stereo unspecified) is higher in inhibition: -0.597% for the first, 8.33% for the second.

First: Cc1ccc(Cl)cc1N1CCN(C(=O)c2cccn2-c2nnc(N3CCCC3)s2)CC1
Second: COc1ccccc1N1CCN(c2nc3c(S(=O)(=O)c4ccc(C)c(C)c4)nnn3c3ccc(Cl)cc23)CC1
The inhibition of the first is higher: 10.6% for the first, -9.76% for the second.

Compared with `CCN(C(=O)c1cc(S(=O)(=O)N2CCc3ccccc32)cn1C)c1cccc(C)c1`, `CCN(CCCNC(=O)c1nn(-c2ccc(OC)c(Cl)c2)c(=O)c2c1c1ccccc1n2C)c1cccc(C)c1` is higher in inhibition: 0.29% for the first, 10.4% for the second.

Going from `CC1=C(C(N)=O)C(c2ccc(F)cc2)n2nc(-c3ccc(N(C)C)cc3)nc2N1` (stereo unspecified) to `COc1cc(NC(=O)c2cnc3c(-c4ccc(F)cc4)c(C)nn3c2C)cc(OC)c1`, the inhibition falls from 17.4% to 10.1%.

Compared with `CNS(=O)(=O)c1cn(CC(=O)Nc2ccc(C)c(N(C)C)c2)cc1S(=O)(=O)NC`, `COc1cc(NC(=O)NCCn2nnc3cc(S(=O)(=O)N(C)C)ccc32)cc(OC)c1` is higher in inhibition: -4.13% for the first, 6.2% for the second.

First: Cc1ccc(Cn2c(C(=O)O)c(CNCc3cccs3)c3ccc(C)cc32)cc1
Second: CSc1ccc(CCNC(=O)CCc2c(C)nc3cc(-c4ccccc4)nn3c2C)cc1
The inhibition of the first is higher: 18.5% for the first, -1.16% for the second.

First: Cc1ccc(Cl)cc1NC(=O)c1ccc2snnc2c1
Second: CCn1c(C(=O)Nc2cc(Cl)ccc2C)cc2sc(Cl)cc21
The inhibition of the first is higher: -14% for the first, -27.7% for the second.

First: CCc1c(C)sc(NC(=O)C2c3ccccc3Oc3ccccc32)c1C(=O)OC(C)C
Second: CCOC(=O)C(=O)Nc1c(C(=O)Nc2cccc(F)c2)oc2ccccc12
The inhibition of the first is higher: 6.06% for the first, -9.04% for the second.

Going from `Cc1cccc(-n2ccnc2SCC(=O)Nc2nc3ccccc3s2)c1` to `O=C(CSc1ncc(CO)n1Cc1ccccc1)Nc1ccc(C(F)(F)F)cc1`, the inhibition rises from -2.41% to 2.62%.

Compared with `CCOC(=O)c1ccc(NS(=O)(=O)c2cc(Br)cc3c2N(C(C)=O)C(C)C3)cc1` (stereo unspecified), `CCN(CC)S(=O)(=O)c1ccc2oc(C(=O)Nc3ccc(Br)cc3F)c(C)c2c1` is lower in inhibition: 3.8% for the first, -3.48% for the second.

Going from `Cc1cccc(-c2nc(SCC(=O)NCc3ccco3)c3c(=O)n(C)c(=O)n(C)c3n2)c1` to `COc1cc2[nH]c(=O)n(CCCCCC(=O)NCCc3ccccc3)c(=O)c2cc1OC`, the inhibition falls from 25.2% to 2.24%.

Compared with `CCc1ccc(-c2nc(-c3cc4ccccc4oc3=O)sc2C)cc1`, `CCOc1nc(-c2ccc(C)cc2)ccc1-c1noc(-c2ccccc2F)n1` is lower in inhibition: -2.83% for the first, -10.3% for the second.

Compared with `Cc1ccc(-c2nc3ccc(Cl)cn3c2Nc2ccc3c(c2)OCCO3)s1`, `O=C(Nc1c(C(=O)Nc2cccc(F)c2)oc2ccccc12)c1cc2ccccc2o1` is higher in inhibition: -4.77% for the first, 7.37% for the second.

First: COc1ccc(CCNC(=O)CCc2c(C)c3cc4c(C)c(C)oc4cc3oc2=O)cc1
Second: COc1cccc(C2c3c(-c4ccccc4O)n[nH]c3C(=O)N2CCc2ccc(OC)c(OC)c2)c1 (stereo unspecified)
The inhibition of the first is lower: -19.8% for the first, -14.9% for the second.

`CCOc1ccc(/C=C/c2nc(C#N)c(Nc3ccc(OC)cc3)o2)cc1` was tested, and the inhibition was -16.8%.

With `CCCn1cnc2c(N)c(C)c(C)cc21` the inhibition was active: 32.4%.
For `CC12CCC(C(=O)N(CCCCN3CCN(c4ccccn4)CC3)C1=O)C2(C)C` (stereo unspecified), the inhibition was active: 84.4%.
`CC(C)C(NC(=O)c1ccccc1)C(=O)NCc1ccccn1` (stereo unspecified) was tested, and the inhibition was active: 61.3%.
For `Cc1cc(NC(=O)CSc2nc(C(C)C)nc3sc(C)c(C)c23)no1`, the inhibition was active: 35.3%.
For `COc1ccccc1NC(=O)NCC1(N(C)C)CCCCC1`, the inhibition was active: 58.7%.
With `COC(=O)c1cc(C(=O)OC)cc(-n2c(C)cc(C(=O)CC#N)c2C)c1` the inhibition was active: 32.7%.
For `CCOc1ccc(CN(C)c2nc(-c3cccnc3)nc3ccccc23)cc1OC`, the inhibition was active: 36%.
For `Clc1ccc(Cl)c(OCCN2CCCC2)c1`, the inhibition was active: 46.7%.
For `Cc1ccc(NC(=O)c2nnn(-c3ccc4c(c3)OCCO4)c2N)cc1`, the inhibition was active: 60.4%.
In the case of `CCCCNC(=S)NCc1ccc2[nH]c(C)cc2c1`, the inhibition is reported as active: 30.3%.
`Cc1ccc2nc(N3C(=O)C(O)=C(C(=O)c4ccc(C)o4)C3c3ccco3)sc2c1` (stereo unspecified) was tested, and the inhibition was active: 31.3%.
